# Laboratory results reported in PubChem BioAssay AID686978 (National Center for Advancing Translational Sciences (NCATS), 2013).
# The campaign covered roughly 420,000 compounds. About 64,000 (15%) were called active. The inconclusive results got no clear call from the source; some entries with a clear call stand among them for comparison. Calls come from the whole dose curve; as a rule, active = well fitted inhibition curve with a large enough effect; inconclusive = small, poorly fitted or top-dose-only effect; inactive = flat fitted curve, though single readings scatter. No potency is given beside an inconclusive call; the fits are too rough. Square brackets hold non-standard residues; d marks the D form. Peptide text beside a SMILES is read from it. * marks the point of attachment. ξ: configuration not given here. ξY = NC(Cc1ccc(O)cc1)C(=O)O; Cbz = O=C(OCc1ccccc1)*; OtBu = CC(C)(C)O*; tBu = CC(C)(C)*
# Assay: qHTS for Inhibitors of human tyrosyl-DNA phosphodiesterase 1 (TDP1): qHTS in cells in absence of CPT; note: nearly all actives have a fitted effect of over 55% in size
# Conditions: DT40 Tdp1-/- hTDP1 cells, no CPT, ATP luminescence, 48 h; activity change, negative = growth inhibition: at 46.2 µM (top of the series) unless noted
# Method in brief: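 Cells were dispensed at 400 per well, compounds added by pin tool, plates incubated ≥48 hr at 37 °C, then CellTiter-Glo added for 30 min at room temperature before luminescence reading. Line: DT40 Tdp1-/- complemented with hTDP1; camptothecin omitted.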
# % is set by controls: 0 for no effect and ±100 for the full control effect; potency is the fitted concentration of half-maximal effect; tags give direction and shape of the fitted curve.
SMILES,Potency,"activity change, negative = growth inhibition"
COc1ccccc1CNc1ccnc(-c2c(C)noc2C)n1,"inconclusive [inhibitor, single point]",–
COc1ccc(Cn2c(CCC(=O)NCc3ccc(Cl)cc3)nc3cccnc32)cc1,"inconclusive [inhibitor, single point]",–
CCOC(=O)CC(NC(=O)CCc1c(C)nc2c(-c3ccccc3)c(C)nn2c1C)c1ccc(OC(C)C)cc1 (centres undefined),"inconclusive [inhibitor, single point]",–
CCC1CCCCN1CCCNC(=O)C1CCC(Cn2c(=O)[nH]c3ccccc3c2=O)CC1 (centres undefined),inactive,–
Cc1ccccc1NC(=O)/C(=C/c1ccccc1)c1ccccc1,active: 11.6 µM,–
CCCc1cc(=O)oc2cc(C)cc(OCC(=O)NCc3ccccn3)c12,inactive,–
S=c1[nH]cnc2sc(Nc3ccccc3)nc12,active: 14.6 µM,–
O=C(CSc1cn(CC(=O)N2CCCC2)c2ccccc12)Nc1ccc(Cl)cc1,"inconclusive [inhibitor, single point]",–
O=c1cc(CN2CCN(c3ccccc3O)CC2)nc2sccn12,"inconclusive [inhibitor, partial curve, poor fit]",–
CCOC(=O)c1cc(S(=O)(=O)Nc2cc(OC)ccc2OC)[nH]n1,"inconclusive [inhibitor, partial curve]",–
COc1ccc(CCNC(=O)c2ccc(Cl)c(S(=O)(=O)N(C)c3ccccc3)c2)cc1,active: 16.4 µM,–
O=C(NCC(=O)N1CCC2(CC1)NCCc1[nH]cnc12)c1cccc(Cl)c1,inactive,–
CCOC(=O)C1=NOC2(C1)C(=O)Nc1ccc(OC(F)(F)F)cc12 (centres undefined),active: 16.4 µM,–
C=CCN(C(=O)c1cccc(N2C(=O)C3CC=CC(C)C3C2=O)c1)c1ccccc1 (centres undefined),active: 4.61 µM,–
Cc1c(-c2ccccc2)oc2c(C(=O)OCC(=O)Nc3ccc(C(N)=O)cc3)cccc2c1=O,"inconclusive [inhibitor, single point]",–
CCN(CCn1cccn1)Cc1nc(-c2ccccc2)no1,"inconclusive [inhibitor, single point]",–
CSc1nc(C(=O)NCc2nc(-c3cccc(NC(=O)c4ccccn4)c3)oc2C)cs1,"inconclusive [inhibitor, single point]",–
CCN(CC)CCn1c(NC(=O)c2ccc(C(F)(F)F)cc2)nc2ccccc21,"inconclusive [inhibitor, single point]",–
Cc1cc(NC(=O)CCN2CCN(C/C=C/c3ccccc3)CC2)ccc1Br,"inconclusive [inhibitor, single point]",–
CCOC(=O)C(C)Oc1c(Br)cc(C2NC(=O)NC(C)=C2C(C)=O)cc1OCC (centres undefined),inactive,–
Cc1ccccc1COC(=O)c1cc([N+](=O)[O-])ccc1N1CCOCC1,"inconclusive [inhibitor, single point]",–
CC(C)(C)OC(=O)C(Cc1ccc(OC(C)(C)C)cc1)NC(=O)CNC(=O)CNC(=O)OCc1ccccc1 (stereo not drawn) (Cbz-Gly-Gly-[ξY](tBu)-OtBu),"inconclusive [inhibitor, single point]",–
Cc1ccc2nc(-c3ccc(N=Nc4cc(S(=O)(=O)O)c5ccccc5c4O)cc3)sc2c1S(=O)(=O)O,"inconclusive [inhibitor, partial curve]",–

SMILES,Potency,"activity change, negative = growth inhibition"
CCOc1ccc(/C=C/C(=O)c2ccccc2)cc1OC,"inconclusive [inhibitor, single point]",–
C=CCOc1ccc(CNc2ccc3[nH]c(=O)[nH]c3c2)cc1,"inconclusive [inhibitor, single point]",–
C[C@@H]1CN([C@@H](C)CO)C(=O)CCCn2nncc2CO[C@H]1CN(C)S(=O)(=O)c1cccc(F)c1,inactive,–
COC(=O)c1c(NC(=O)CCCOc2cccc(C)c2)sc2c1CCC2,inactive,–
CCc1ccc(-c2c(C)sc(NC(C)=O)c2C(N)=O)cc1,active: 23.1 µM,–
O=C(Nc1ccc(C(=O)N2CCCCC2)cc1)C1CCCC1,inactive,–
COc1ccc2[nH]c(=O)c(C(c3nnnn3CC3CCCO3)N3CCc4ccccc4C3)cc2c1 (centres undefined),inactive,–
COc1ccc(C(=O)N2CCC[C@@]3(CCN(c4cccc(-c5ccccc5)c4)C3)C2)cc1,"inconclusive [inhibitor, single point]",–
COC(=O)c1sccc1NC(=O)C1C2C=CC(C2)C1C(=O)O (centres undefined),"inconclusive [inhibitor, single point]",–
Cc1cc(C)c2nc(N3CCC(C(=O)NCCN4CCOCC4)CC3)sc2c1,inactive,–
CCn1c(SCC(=O)c2ccc(O)c(O)c2)nnc1-c1ccccc1OC,"inconclusive [inhibitor, single point]",–
OCCCNC(=S)Nc1ccc2nccnc2c1,"inconclusive [inhibitor, partial curve]",–
C(=C\c1ccncc1)/c1ccncc1,inactive,–
Cc1nc2nc(C)n(CCN3CCOCC3)c(=O)c2c(-c2cccc([N+](=O)[O-])c2)c1C(=O)CCCCCCCCCCN1CCC(c2ccccc2)(c2ccccc2)CC1,"inconclusive [inhibitor, single point]",–
CCN1CCN(CCNC(=O)c2ccc3c(c2)N(Cc2ccc(F)cc2)C(=O)c2ccccc2S3=O)CC1 (centres undefined),"inconclusive [inhibitor, single point]",–
COC(=O)c1ccc2c(=O)n(CCCCCC(=O)O)c(=O)[nH]c2c1,inactive,–
C[C@H](O)[C@@H]1CN2CCc3c([nH]c4ccccc34)[C@@H]2C[C@@H]1N(C)C(=O)Nc1ccc(F)cc1,"inconclusive [inhibitor, partial curve]",–
O=C(CSc1nc(C2CCCCC2)nc2ccccc12)NCc1ccco1,active: 20.6 µM,–
CCOc1ccccc1NC(=O)c1cccc(S(=O)(=O)N(Cc2ccccc2)c2ccccc2OC)c1,active: 16.4 µM,–
C=CCSC1=N/C(=C\c2cccnc2)C(=O)N1c1ccc(OC)cc1,"inconclusive [inhibitor, partial curve]",–
O=C(c1ccco1)c1nnn(Cc2ccccc2)c1-c1ccccc1,active: 20.6 µM,–
CC(=O)Nc1ccc(S(=O)(=O)N2CCN(C(C)CCc3ccccc3)CC2)cc1 (centres undefined),"inconclusive [inhibitor, partial curve]",–
O=[N+]([O-])c1cc(S(=O)(=O)Nc2ccccc2)ccc1N1CCN(c2ccccc2)CC1,"inconclusive [inhibitor, single point]",–

SMILES,Potency,"activity change, negative = growth inhibition"
CCOP(=O)(Nc1ccc2oc(=O)c3ccccc3c2c1)OCC,"inconclusive [inhibitor, single point]",–
CC1(C(=O)Nc2ccc(Cl)c(C(F)(F)F)c2)Cc2c(-c3ccc4c(c3)OCO4)ccnc2O1 (centres undefined),"inconclusive [inhibitor, single point]",–
O=C(CC1SC(N2CCCC2)=NC1=O)Nc1ccc(C(=O)NCc2ccccc2F)cc1 (centres undefined),inactive,–
CC1(C)CC(=O)C2=C(C1)NC(Nc1nc3ccccc3o1)=NC2c1ccccc1 (centres undefined),active: 2.82 µM,–
Cc1ccc(Nc2nc(NCc3ccco3)c3ccccc3n2)cc1,active: 2.59 µM,–
Cc1ccccc1OCC(O)Cn1c2ccccc2c2ccccc21 (centres undefined),"inconclusive [inhibitor, single point]",–
CN1CCN(C(=S)c2cn(Cc3ccc(Br)cc3)c3ccccc23)CC1,"inconclusive [inhibitor, single point]",–
O=C(CNC(=S)N(Cc1ccccc1Cl)C1CCCC1)NCCN1CCOCC1,inactive,–
OCCC1CN(Cc2nc(-c3ccccc3)cs2)CCN1Cc1ccc(F)cc1 (centres undefined),active: 16.4 µM,–
Cc1nn(Cc2ccccc2)c(Cl)c1/C=C/C(=O)OCC(=O)NC(C)C(C)C (centres undefined),"inconclusive [inhibitor, single point]",–
O=C1Nc2ccccc2Oc2cc(Oc3ccccc3)ccc21,"inconclusive [inhibitor, single point]",–
COc1ccc(OCCN2CCC(C(=O)NC(c3ccc(C)cc3)c3ccccn3)CC2)cc1 (centres undefined),inactive,–
COc1ccc(-c2noc(CNC(=O)C(C)Oc3ccccc3)n2)cc1 (centres undefined),inactive,–
NNC(=O)CCc1ccc(S(=O)(=O)N2CCOCC2)cc1,–,inconclusive: -31.5% [inhibitor]
CCOC(=O)CC(=O)NC(C)(C)CCCCC(C)(C)NC(=O)CC(=O)OCC,inactive,–
COc1ccc(C(=O)OCC(=O)NC23CC4CC(CC(C4)C2)C3)c(O)c1,"inconclusive [inhibitor, single point]",–
O=C(NNC(=O)C12CC3CC(CC(Cl)(C3)C1)C2)c1csc(N2CCOCC2)n1,"inconclusive [inhibitor, single point]",–
Cc1cc(C(=O)COC(=O)Cc2n[nH]c(=O)c3ccccc23)c(C)n1CC(F)(F)F,inactive,–
CC(CC(=O)N1CCc2ccccc21)S(=O)(=O)c1ccc2c(c1)NC(=O)CO2 (centres undefined),inactive,–
O=c1cc(-c2ccc(O)cc2)oc2cc(O)c([C@@H]3O[C@H](CO)[C@@H](O)[C@H](O)[C@H]3O)c(O)c12,–,inconclusive: -4.3% [inhibitor]
Cc1cc(NC(=O)CSc2nc3cc(C(=O)NCCCOC(C)C)ccc3c(=O)n2Cc2ccco2)no1,"inconclusive [inhibitor, single point]",–
COc1ccc(NC(=O)Cn2c(SCc3ccc(C)cc3)nc3cccnc32)cc1OC,active: 1.64 µM,–
Cc1ccc(C)c(CN2C(=O)c3ccccc3S(=O)(=O)c3ccc(C(=O)OCC4CCCO4)cc32)c1 (centres undefined),"inconclusive [inhibitor, single point]",–
